Reference: PubChem BioAssay AID1347428 (National Center for Advancing Translational Sciences (NCATS), 2020)
Among all 91,000 compounds or so, about 290 (0.32%) were called active. The inconclusive results got no clear call from the source; some entries with a clear call stand among them for comparison. Calls come from the whole dose curve; as a rule, active = well fitted inhibition curve with a large enough effect; inconclusive = small, poorly fitted or top-dose-only effect; inactive = no such curve, though single readings can be large or run the other way. A potency beside an inconclusive call is a rough fit, not a confirmed value.

The molecules below were run against Single-stranded DNA cytosine deaminase (Homo sapiens) (UniProt Q9GZX7) (assay: Primary qHTS assay for inhibitors of Activation Induced Cytidine Deaminase (AID): AID signal). Conditions: AID deamination FRET fluorescence, UDG-coupled, 4 h; series mostly up to 115 µM.
Note: nearly all actives have a fitted effect of over 25% in size.
Potency is the fitted concentration of half-maximal effect; tags give direction and shape of the fitted curve.

Sequence of UniProt Q9GZX7 (Q9GZX7 whole entry, looked up): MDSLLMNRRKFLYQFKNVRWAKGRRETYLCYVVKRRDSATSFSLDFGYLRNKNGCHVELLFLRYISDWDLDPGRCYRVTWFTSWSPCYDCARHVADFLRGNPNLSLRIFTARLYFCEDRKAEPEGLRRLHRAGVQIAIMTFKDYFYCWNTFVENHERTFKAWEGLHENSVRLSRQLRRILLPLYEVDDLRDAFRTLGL

Compound	Potency
Cc1cccc(C(=O)N2CCc3cc(CNC(=O)c4ccco4)ccc32)c1	inconclusive: 22.4 µM [inhibitor, full curve, poor fit]
CCn1c(C)cc(C(=O)COC(=O)c2csc(NCc3ccccc3)n2)c1C	inactive
CC(c1ccc(F)cc1)N(C)CCC(=O)N1CCCCC1 (stereo unspecified)	inactive
COc1ccccc1CNC(=O)C(=O)NCC(c1cccnc1)N1CCN(c2ccccc2)CC1 (stereo unspecified)	inactive
COc1ccccc1CNC(=O)c1ccc(-c2csc(C3CC3)n2)cc1	inconclusive: 22.4 µM [inhibitor, partial curve, poor fit]
COc1cccc(CNC(=O)c2nn(C)c3c2CSc2ccccc2-3)c1	inconclusive: 39.8 µM [inhibitor, full curve]
CCN1C(=O)c2ccccc2Sc2ccc(NC(=O)Nc3cc(C)cc(C)c3)cc21	inconclusive: 10 µM [inhibitor, full curve, poor fit]
COc1ccccc1Cn1c(C2CC(=O)N(c3ccccc3OC)C2)nc2ccccc21 (stereo unspecified)	inconclusive: 89.1 µM [inhibitor, single point]
CCSC1=N/C(=C\c2ccc(OC)c(C)c2)C(=O)S1	inactive
COc1ccc(Cl)cc1NC(=O)COc1ccccc1	inconclusive: 25.1 µM [inhibitor, partial curve, poor fit]
O=C(C1CCN(S(=O)(=O)c2cccs2)CC1)N1CCN(c2cccc(Cl)c2)CC1	inconclusive: 39.8 µM [inhibitor, single point]
CCN(CC)CCCNC(=O)c1ccc2c(c1)N(Cc1c(F)cccc1Cl)C(=O)c1ccccc1S2	inconclusive: 89.1 µM [inhibitor, partial curve, poor fit]
CCc1cc(=O)n(CC(=O)N2CCCCC2C)c(-c2ccccc2)n1 (stereo unspecified)	inactive
COc1cc(C2CC(=O)Nc3nc(N4CCCCC4)sc32)ccc1OCC(N)=O (stereo unspecified)	active: 22.4 µM
Cn1c(Sc2cc(-c3ccccc3)c3ccccc3n2)nnc1-c1ccc(F)cc1	inconclusive: 20 µM [inhibitor, partial curve, poor fit]
CCN1CCSc2ccc(C(=O)NCc3cccc(F)c3)cc21	inconclusive: 28.2 µM [inhibitor, single point]
Cc1ccc(C(=O)Nc2ccc3c(c2)N(C)C(=O)c2ccccc2S3)cc1	inconclusive: 28.2 µM [inhibitor, full curve, poor fit]
CCC1CCCCN1CCCNC(=O)c1ccc2c(c1)N(Cc1ccccc1F)C(=O)c1ccccc1S2(=O)=O (stereo unspecified)	inconclusive: 79.4 µM [inhibitor, partial curve, poor fit]
Cc1ccc(CNC(=O)c2sc3nc4n(c(=O)c3c2C)CCCC4)cc1	inconclusive: 50.1 µM [inhibitor, partial curve, poor fit]
O=C(c1ccc2c(c1)N(Cc1ccc(F)cc1)CCS2)N1CCN(c2ccccc2)CC1	inconclusive: 56.2 µM [inhibitor, partial curve, poor fit]
COc1ccc2c(c1)CC(C(=O)NCCN1CCN(c3cccc(Cl)c3)CC1)CO2 (stereo unspecified)	inconclusive: 100 µM [inhibitor, single point]
COc1ccc(NC(=O)CSc2c3c(nc4ccc(Cl)cc24)CCCC3)cc1Cl	inconclusive: 89.1 µM [inhibitor, single point]

Compound	Potency
CCNC(=O)c1c(NC(=O)COc2ccc(F)cc2)sc2c1CCCC2	inconclusive: 100 µM [inhibitor, single point]
CCN(C(=O)Cn1c(SCC(=O)Nc2ccc(OC)cc2)nc2ccccc21)c1cccc(C)c1	inconclusive: 35.5 µM [inhibitor, full curve]
CC(C)(C)c1ccc(C(=O)NNc2ncnc3c2cnn3-c2ccccc2)cc1	inactive
O=C(COc1ccccc1)NCC(c1cccs1)S(=O)(=O)c1ccc(Cl)cc1 (stereo unspecified)	inconclusive: 56.2 µM [inhibitor, partial curve, poor fit]
Cc1cccc(Nc2nnc(SCC(=O)N3CCOCC3)s2)c1C	inactive
Cc1ccc(COc2ccc3oc(-c4ccccc4)c(C(=O)O)c3c2)cc1	inconclusive: 56.2 µM [inhibitor, partial curve, poor fit]
CCOc1ccc(C2N3CC4(C(C)C)CN2CC(C(C)C)(C3)C4=O)cc1OC (stereo unspecified)	inconclusive: 50.1 µM [inhibitor, partial curve, poor fit]
CCN(C(=O)C1CCC(CNS(=O)(=O)c2cccc3nsnc23)CC1)c1cccc(C)c1 (stereo unspecified)	inactive
Cc1ccc(Oc2nc3c(c(=O)n(Cc4ccccc4)c(=O)n3C)n2C)cc1C	inconclusive: 39.8 µM [inhibitor, single point]
Cc1ccc(S(=O)(=O)N(CC(O)Cn2c3ccccc3c3ccccc32)c2cccc(C(=O)N(C)C)c2)cc1 (stereo unspecified)	inconclusive: 20 µM [inhibitor, single point]
COc1ccc(C2=NN(S(C)(=O)=O)C(c3cn(-c4ccccc4)nc3-c3cccs3)C2)cc1 (stereo unspecified)	inconclusive: 14.1 µM [inhibitor, partial curve, poor fit]
Cc1cc(C)c(NS(=O)(=O)c2ccc3c(c2)NC(=O)CCS3)c(C)c1	inactive
C=CCNCc1ccsc1	inactive
Cc1ccc(Nc2c(-c3ccc(N4CCOCC4)cc3)nc3ncccn23)c(C)c1	inconclusive: 50.1 µM [inhibitor, partial curve, poor fit]
Cc1cc(C)cc(Nc2ncnc3sc4c(c23)CCCC4)c1	inactive
CC(C)(C)NC(=O)NC(=O)CSc1nnc(-c2c[nH]c3ccccc23)o1	inactive
COc1c(Cl)cc(Cl)cc1C(=O)Nc1cccc2cccnc12	inconclusive: 28.2 µM [inhibitor, single point]
Cc1ccc(C(=O)c2cn(Cc3ccccc3)c3cc4c(cc3c2=O)OCCO4)cc1	inconclusive: 39.8 µM [inhibitor, full curve, poor fit]
COc1ccc(NCc2cccn2-c2nnc(N3CCC(C)CC3)s2)c(OC)c1	inconclusive: 31.6 µM [inhibitor, partial curve, poor fit]
CCN(CC)S(=O)(=O)c1ccc2c(c1)c(=O)c(C(=O)N1CCN(c3cc(C)ccc3C)CC1)cn2C	inconclusive: 56.2 µM [inhibitor, partial curve, poor fit]
O=C(Nc1ccccc1C(F)(F)F)C1CCN(c2nnc(-n3cccc3)s2)CC1	inactive
O=C(CCc1cccs1)N(Cc1cccnc1)C1CC1	inactive

Compound	Potency
CCCCn1c(C2CC(=O)N(c3ccc(OCC)cc3)C2)nc2ccccc21 (stereo unspecified)	inconclusive: 39.8 µM [inhibitor, full curve, poor fit]
COc1cccc(-c2cc(=O)[nH]c(Nc3nc(C)c4ccccc4n3)n2)c1	active: 22.4 µM
COc1ccc(-n2nc(C(=O)N3CCN(c4cccc(C)c4)C(C)C3)c3c4ccccc4n(C)c3c2=O)cc1Cl (stereo unspecified)	inconclusive: 89.1 µM [inhibitor, partial curve, poor fit]
CCCNC(=O)c1cccc(CNCc2ccc(F)cc2)c1	inactive
FC(F)(F)c1ccc(Sc2ccc(C(F)(F)F)cn2)nc1	inactive
Cc1cc(C)cc(OCCn2c(CN(C)C(=O)c3ccco3)nc3ccccc32)c1	inconclusive: 100 µM [inhibitor, partial curve, poor fit]
CCc1ccc(N2CC(c3nc4ccccc4n3Cc3ccccc3C)CC2=O)cc1 (stereo unspecified)	inconclusive: 14.1 µM [inhibitor, full curve, poor fit]
COc1ccc(-n2nnnc2SCC(=O)NCCc2ccccc2)cc1	inconclusive: 28.2 µM [inhibitor, full curve, poor fit]
CCCOC(=O)Nc1ccccc1N=C1CCC/C1=C\c1ccccc1	inactive
COc1ccc(-c2cnc(C)o2)cc1S(=O)(=O)Nc1cccc(C(F)(F)F)c1	inconclusive: 89.1 µM [inhibitor, single point]
O=C(NNC(=S)NC(=O)C(c1ccccc1)c1ccccc1)c1ccc(NC(=O)c2ccccc2)cc1	inconclusive: 79.4 µM [inhibitor, partial curve, poor fit]
CCCCCCCOc1ccc(/C=C(\C#N)C(=O)c2ccccc2)cc1	inconclusive: 56.2 µM [inhibitor, partial curve, poor fit]
COc1ccc(OC)c(C2CC(=O)Nc3c(-c4ccccc4)nsc32)c1 (stereo unspecified)	inactive
C1CCN(C2(CNC3CCCC3)CCCCC2)CC1	inactive
O=C(Nc1ccc(Br)cc1)c1ccc(F)c(S(=O)(=O)N2CCCc3ccccc32)c1	inconclusive: 3.55 µM [inhibitor, full curve, poor fit]
Cc1nn(-c2ccccc2)c(-n2cccc2)c1C(=O)NCCc1ccc(Cl)cc1	inconclusive: 56.2 µM [inhibitor, partial curve, poor fit]
COc1ccc(OC)c2sc(N3CCN(C(=O)c4ccc5c(c4)CCCC5)CC3)nc12	inconclusive: 10 µM [inhibitor, full curve, poor fit]
COc1ccccc1C(=O)NCCn1cc(SCc2ccc(C)cc2)c2ccccc21	inconclusive: 79.4 µM [inhibitor, single point]
O=C(COc1coc(CN2CCCCC2)cc1=O)NCc1ccccc1Cl	inactive
COCCn1c(Cc2ccc(OC)c(OC)c2)n[nH]c1=S	inactive
COc1ccccc1NC(=O)c1cc(S(=O)(=O)N2CCN(c3ccccc3Cl)CC2)ccc1F	inconclusive: 100 µM [inhibitor, single point]
Cc1cccc(CCNc2ncnc3onc(-c4ccc(Cl)cc4)c23)c1	inconclusive: 12.6 µM [inhibitor, partial curve, poor fit]
